We go through 14 sequences from paper PMC4081100.

The entries are a selection whose mix differs from that of the whole data set. For part of these data: At the low end of the ranking, values are background and their order means little. This is one part of the list. For part of these data: Construct or isoform of the protein are uncertain.

What all share (assay): universal protein binding microarray (PBM)
What all share (settings): transcription factors of Arabidopsis thaliana; high values mean tight binding; most listed sequences are background and not binding sites; double strand, one strand shown

Assay [1] has as its target GST-NTL6(1-168) (UniProt Q9SCK6).
In assay [2] the target is T1, GST-ANAC019 NAC domain (UniProt Q9C932).
T1 sequence: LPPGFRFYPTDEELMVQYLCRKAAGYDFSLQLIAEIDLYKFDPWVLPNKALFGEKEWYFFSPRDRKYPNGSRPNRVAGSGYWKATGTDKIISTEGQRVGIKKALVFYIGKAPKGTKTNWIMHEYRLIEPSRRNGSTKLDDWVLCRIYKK

Assay [3] deals with T2, GST-ANAC055(1-171) (UniProt Q9LDY8).
T2 sequence: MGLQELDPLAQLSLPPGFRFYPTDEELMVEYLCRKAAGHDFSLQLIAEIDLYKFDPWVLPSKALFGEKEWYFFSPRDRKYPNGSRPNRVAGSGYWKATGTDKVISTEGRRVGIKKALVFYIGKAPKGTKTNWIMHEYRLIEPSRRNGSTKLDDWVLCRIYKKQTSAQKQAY

For assay [4], the target named is T3, GST-ANAC092(1-285) full length (UniProt Q9FKA0).
T3 sequence: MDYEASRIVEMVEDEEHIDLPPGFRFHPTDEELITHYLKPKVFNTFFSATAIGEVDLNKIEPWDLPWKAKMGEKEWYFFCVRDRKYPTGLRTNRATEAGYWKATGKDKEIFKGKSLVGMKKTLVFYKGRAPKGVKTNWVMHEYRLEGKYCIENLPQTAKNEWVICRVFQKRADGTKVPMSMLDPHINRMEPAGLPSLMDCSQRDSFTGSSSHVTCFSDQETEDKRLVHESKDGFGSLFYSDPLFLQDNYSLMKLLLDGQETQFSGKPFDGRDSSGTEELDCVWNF

The target in assay [5] is T4, GST-NTL8 NAC domain (UniProt Q9XIN7).
T4 sequence: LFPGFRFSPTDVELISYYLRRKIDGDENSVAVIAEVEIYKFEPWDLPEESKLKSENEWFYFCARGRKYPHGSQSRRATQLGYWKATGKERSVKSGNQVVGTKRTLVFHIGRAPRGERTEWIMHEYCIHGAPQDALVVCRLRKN

Assay [6] addresses T5, GST-VND3 NAC domain (UniProt Q9FH59).
T5 sequence: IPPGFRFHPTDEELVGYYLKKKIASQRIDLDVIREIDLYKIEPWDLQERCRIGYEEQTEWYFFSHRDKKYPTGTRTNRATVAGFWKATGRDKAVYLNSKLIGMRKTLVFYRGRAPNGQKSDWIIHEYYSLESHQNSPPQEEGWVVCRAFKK

Assay [7] addresses T6, GST-VND7 NAC domain (UniProt Q9C8W9).
T6 sequence: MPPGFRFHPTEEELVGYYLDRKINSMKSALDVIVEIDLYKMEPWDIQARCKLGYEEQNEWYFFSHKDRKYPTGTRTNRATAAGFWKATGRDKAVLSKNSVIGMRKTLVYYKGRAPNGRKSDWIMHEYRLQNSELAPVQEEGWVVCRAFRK

The target of assay [8] is T7, GST-VOZ2 (Arabidopsis thaliana) (UniProt Q9SLB9).
T7 sequence: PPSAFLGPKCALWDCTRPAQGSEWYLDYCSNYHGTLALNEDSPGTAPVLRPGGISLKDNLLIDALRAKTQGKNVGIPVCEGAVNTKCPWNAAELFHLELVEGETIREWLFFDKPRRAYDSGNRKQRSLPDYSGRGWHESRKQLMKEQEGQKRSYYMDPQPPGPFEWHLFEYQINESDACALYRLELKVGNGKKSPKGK

In assay [9] the target is GST-WRKY1(266-371) (UniProt Q9SI37).
Assay [10] concerns the target T8, GST-NAP(1-166) (UniProt O49255).
T8 sequence: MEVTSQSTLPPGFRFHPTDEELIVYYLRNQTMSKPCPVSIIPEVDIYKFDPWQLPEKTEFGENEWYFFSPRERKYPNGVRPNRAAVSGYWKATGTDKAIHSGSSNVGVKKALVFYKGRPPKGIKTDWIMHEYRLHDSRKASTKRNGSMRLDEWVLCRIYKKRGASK

Assay [11] has as its target T9, GST-NST2(1-184) (UniProt Q9M274).
T9 sequence: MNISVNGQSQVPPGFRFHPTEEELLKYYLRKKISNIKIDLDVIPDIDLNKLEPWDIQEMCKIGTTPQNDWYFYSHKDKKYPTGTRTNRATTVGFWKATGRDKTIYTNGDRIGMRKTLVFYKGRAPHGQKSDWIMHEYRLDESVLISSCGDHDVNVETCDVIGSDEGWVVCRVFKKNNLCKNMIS

The target of assay [12] is T10, GST-ANAC092(1-176) (UniProt Q9FKA0).
T10 sequence: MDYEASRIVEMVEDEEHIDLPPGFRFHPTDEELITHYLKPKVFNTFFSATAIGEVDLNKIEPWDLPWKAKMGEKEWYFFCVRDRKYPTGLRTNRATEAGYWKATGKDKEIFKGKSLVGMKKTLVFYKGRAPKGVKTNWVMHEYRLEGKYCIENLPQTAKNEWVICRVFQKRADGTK

Assay [13] addresses T11, GST-ATAF1 NAC domain (UniProt Q39013).
T11 sequence: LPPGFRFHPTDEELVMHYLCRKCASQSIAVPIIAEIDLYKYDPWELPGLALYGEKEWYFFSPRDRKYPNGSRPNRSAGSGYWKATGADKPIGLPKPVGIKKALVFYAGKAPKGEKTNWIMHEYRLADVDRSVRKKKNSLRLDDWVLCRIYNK

Consider ACGTGTAC, for which the binding signal in assay [1] is -0.111 E-score; in [2] it was 0.309 E-score; in assay [3] it was 0.286 E-score; in assay [4], 0.413 E-score; in assay [5], -0.0962 E-score; in assay [6] it was 0.267 E-score. The values for the binding signal in assay [7], in assay [8] and in assay [9] were 0.206 E-score, -0.00108 E-score and -0.0273 E-score, respectively.

As for ACTCAACC, the binding signal is 0.0444 E-score in assay [1]; -0.0489 E-score in [2]; -0.0323 E-score in assay [10]; -0.119 E-score in [5]; -0.0806 E-score in [6]; -0.0824 E-score in [7]. Also, the binding signal in assay [8] was 0.0852 E-score; in [9], -0.0492 E-score.

Consider TGAAGTAA, for which the binding signal in assay [1] is 0.377 E-score; in assay [2] it was -0.00485 E-score; in assay [3], 0.155 E-score; in assay [10], -0.00923 E-score; in assay [11], 0.324 E-score; in assay [6] it was 0.131 E-score. Moreover, the binding signal was 0.132 E-score in [7], 0.124 E-score in assay [8] and -0.0561 E-score in assay [9].

In the case of AGGGGAAA, the binding signal in [12] was 0.191 E-score; in assay [2], 0.112 E-score; in assay [3] it was 0.0183 E-score; in assay [13], 0.017 E-score; in assay [4], 0.0577 E-score; in [11], -0.0321 E-score. Besides, the binding signal in [6] was 0.0154 E-score; in [7], 0.132 E-score; in [8] it was 0.0561 E-score; in assay [9] it was -0.0554 E-score.

On to GAAGTAAC, for which the binding signal in [1] is 0.381 E-score; in assay [2], 0.0356 E-score; in assay [10] it was -0.0276 E-score; in assay [6], -0.0252 E-score; in [7], 0.0217 E-score; in assay [8], 0.0123 E-score. The same sequence came in with a binding signal in assay [9] of -0.186 E-score.

Turning to ACCGTTGA, the binding signal is -0.0239 E-score in assay [1]; 0.0224 E-score in assay [2]; -0.00817 E-score in assay [3]; 0.038 E-score in assay [13]; 0.0165 E-score in assay [11]; 0.013 E-score in assay [5]. Besides, the binding signal is -0.049 E-score in [6], 0.013 E-score in assay [7], 0.0945 E-score in [8] and 0.404 E-score in assay [9].

As to TCGCGTAA, the binding signal in assay [12] was 0.283 E-score; in [2], -0.00554 E-score; in [3] it was 0.0885 E-score; in assay [10] it was 0.0199 E-score; in assay [11], 0.259 E-score; in [5], 0.0263 E-score. In addition, the binding signal was 0.0298 E-score in assay [6], 0.14 E-score in [7], 0.21 E-score in assay [8] and -0.0712 E-score in assay [9].

For GTAAGAAA, the binding signal was 0.422 E-score in [1]; 0.224 E-score in [2]; 0.206 E-score in [3]; 0.311 E-score in [13]; 0.16 E-score in assay [6]; 0.19 E-score in assay [7]. Further, the binding signal in assay [8] is 0.208 E-score; in [9], -0.0658 E-score.

On to GCTAAGGA, for which the binding signal is 0.0227 E-score in assay [12]; -0.00951 E-score in assay [2]; -0.108 E-score in assay [3]; -0.0461 E-score in assay [13]; -0.045 E-score in assay [10]; -0.00148 E-score in [11]. In addition, the binding signal in assay [5] is -0.0279 E-score; in assay [6], -0.129 E-score; in [7] it was -0.0159 E-score; in assay [8] it was -0.0841 E-score; in assay [9] it was -0.17 E-score.

For GCACGTTA, the binding signal in [1] was -0.00571 E-score; in assay [2], 0.153 E-score; in assay [3], 0.205 E-score; in assay [13] it was 0.226 E-score; in assay [4], 0.464 E-score; in [5] it was -0.121 E-score. For the same sequence, the binding signal in [6] is 0.217 E-score; in assay [7] it was 0.246 E-score; in assay [8], -0.111 E-score; in [9], -0.173 E-score.

For GAGGAAAC, the binding signal is 0.00167 E-score in assay [1]; 0.0142 E-score in [2]; 0.00211 E-score in assay [3]; 0.017 E-score in [11]; 0.465 E-score in [5]; 0.0216 E-score in assay [6]. The figures for the binding signal in assay [7], in assay [8] and in assay [9] were -0.0189 E-score, -0.137 E-score and -0.13 E-score, respectively.

Take ACGCCATG: the binding signal is -0.135 E-score in assay [1]; -0.019 E-score in assay [2]; -0.0142 E-score in assay [3]; 0.0141 E-score in assay [13]; 0.154 E-score in assay [10]; -0.0882 E-score in assay [5]. Moreover, the binding signal in [6] is -0.105 E-score; in [7], 0.0848 E-score; in assay [8], -0.0411 E-score; in assay [9], -0.158 E-score.

For the sequence AACACGCA, the binding signal in assay [12] was 0.469 E-score; in [1], -0.0794 E-score; in assay [13], 0.315 E-score; in assay [5], -0.0353 E-score; in assay [6] it was 0.346 E-score; in assay [7] it was 0.34 E-score. Further, the binding signal is 0.0167 E-score in assay [8] and -0.117 E-score in [9].

As to TACGCGAA, the binding signal was -0.00694 E-score in [1]; 0.023 E-score in [2]; 0.0984 E-score in assay [3]; 0.119 E-score in assay [13]; 0.0761 E-score in assay [10]; 0.0299 E-score in [5]. For the same sequence, the binding signal in assay [6] is 0.0451 E-score; in assay [7], 0.0367 E-score; in assay [8], 0.2 E-score; in assay [9] it was -0.0407 E-score.
